# The list shows a part of the results.
# B1: PfulAvr4 (Pseudocercospora fuligena) (protein)
# chain: HHHHHHDYKDDDDKTYVQDKTPAFVCPAADIKTTKCLGPKDCLYPSPKTCNGYIQCSPADDSYLTGIIHEMPCPSGLLWNDNKKWCDWPENTTCGLVKSAGATEVDATKQGPTPGKYHG
# Columns and labels:
# Assay in all cases: glycan array binding signal (z-score within array); higher = stronger binding
# Settings in all cases: glycan notation: IUPAC condensed, linker removed
# [1] = target: Gal(b1-4)GlcNAc(b1-2)Man(a1-6)[Man(a1-3)]Man(b1-4)GlcNAc(b1-4)GlcNAc
# In short: (§1)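 Glycan array data were curated from 3228 arrays in the Consortium for Functional Glycomics database and kept only where the protein sequence was available. Glycan names were converted to IUPAC-condensed notation, and columns mapping to the same glycan were averaged. The binding signal is a within-array Z-score, averaged across arrays of the same protein sequence at different concentrations or buffers and across linkers. Negative Z-scores can be read as non-binding.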
# [2] = target: Gal(b1-4)GlcNAc(b1-2)[Gal(b1-4)GlcNAc(b1-4)]Man(a1-3)[Gal(b1-4)GlcNAc(b1-2)Man(a1-6)]Man(b1-4)GlcNAc(b1-4)GlcNAc
# In short: as §1
# [3] = target: Gal(b1-4)GlcNAc(b1-2)[Gal(b1-4)GlcNAc(b1-4)]Man(a1-3)[Gal(b1-4)GlcNAc(b1-2)[Gal(b1-4)GlcNAc(b1-6)]Man(a1-6)]Man(b1-4)GlcNAc(b1-4)GlcNAc
# In short: as §1
# [4] = target: Gal(b1-4)GlcNAc(b1-2)[Gal(b1-4)GlcNAc(b1-4)]Man(a1-3)[GlcNAc(b1-4)][Gal(b1-4)GlcNAc(b1-2)Man(a1-6)]Man(b1-4)GlcNAc(b1-4)GlcNAc
# In short: as §1
# [5] = target: Gal(b1-4)GlcNAc(b1-2)[Gal(b1-4)GlcNAc(b1-4)]Man(a1-3)[GlcNAc(b1-4)][Gal(b1-4)GlcNAc(b1-2)[Gal(b1-4)GlcNAc(b1-6)]Man(a1-6)]Man(b1-4)GlcNAc(b1-4)GlcNAc
# In short: as §1
# [6] = target: Gal(b1-4)GlcNAc(b1-2)[Gal(b1-4)GlcNAc(b1-6)]Man(a1-6)[Gal(b1-4)GlcNAc(b1-2)Man(a1-3)]Man(b1-4)GlcNAc(b1-4)GlcNAc
# In short: as §1
# [7] = target: Gal(b1-4)GlcNAc(b1-2)[Gal(b1-4)GlcNAc(b1-6)]Man(a1-6)[Gal(b1-4)GlcNAc(b1-2)Man(a1-3)]Man(b1-4)GlcNAc(b1-4)[Fuc(a1-6)]GlcNAc
# In short: as §1
# [8] = target: Gal(b1-4)GlcNAc(b1-2)[Gal(b1-4)GlcNAc(b1-6)]Man(a1-6)[GlcNAc(b1-4)][Gal(b1-4)GlcNAc(b1-2)Man(a1-3)]Man(b1-4)GlcNAc(b1-4)GlcNAc
# In short: as §1
# [9] = target: Gal(b1-4)GlcNAc(b1-2)[Gal(b1-4)GlcNAc(b1-6)]Man(a1-6)[GlcNAc(b1-4)][Gal(b1-4)GlcNAc(b1-2)[Gal(b1-4)GlcNAc(b1-4)]Man(a1-3)]Man(b1-4)GlcNAc(b1-4)[Fuc(a1-6)]GlcNAc
# In short: as §1
# [10] = target: Gal(b1-4)GlcNAc(b1-3)Gal(b1-3)GalNAc
# In short: as §1
# [11] = target: Gal(b1-4)GlcNAc(b1-3)Gal(b1-3)GlcNAc
# In short: as §1
# [12] = target: Gal(b1-4)GlcNAc(b1-3)Gal(b1-4)Glc
# In short: as §1
# [13] = target: Gal(b1-4)GlcNAc(b1-3)Gal(b1-4)GlcNAc
# In short: as §1
# [14] = target: Gal(b1-4)GlcNAc(b1-3)Gal(b1-4)GlcNAc(b1-2)Man(a1-3)[Gal(b1-4)GlcNAc(b1-3)Gal(b1-4)GlcNAc(b1-2)Man(a1-6)]Man(b1-4)GlcNAc(b1-4)GlcNAc
# In short: as §1
# [15] = target: Gal(b1-4)GlcNAc(b1-3)Gal(b1-4)GlcNAc(b1-2)Man(a1-3)[Gal(b1-4)GlcNAc(b1-3)Gal(b1-4)GlcNAc(b1-2)Man(a1-6)]Man(b1-4)GlcNAc(b1-4)[Fuc(a1-6)]GlcNAc
# In short: as §1
# [16] = target: Gal(b1-4)GlcNAc(b1-3)Gal(b1-4)GlcNAc(b1-2)[Gal(b1-4)GlcNAc(b1-3)Gal(b1-4)GlcNAc(b1-6)]Man(a1-6)[Gal(b1-4)GlcNAc(b1-3)Gal(b1-4)GlcNAc(b1-2)Man(a1-3)]Man(b1-4)GlcNAc(b1-4)GlcNAc
# In short: as §1
# [17] = target: Gal(b1-4)GlcNAc(b1-3)Gal(b1-4)GlcNAc(b1-2)[Gal(b1-4)GlcNAc(b1-3)Gal(b1-4)GlcNAc(b1-6)]Man(a1-6)[Gal(b1-4)GlcNAc(b1-3)Gal(b1-4)GlcNAc(b1-2)Man(a1-3)]Man(b1-4)GlcNAc(b1-4)[Fuc(a1-6)]GlcNAc
# In short: as §1
# [18] = target: Gal(b1-4)GlcNAc(b1-3)Gal(b1-4)GlcNAc(b1-3)Gal(b1-4)GlcNAc
# In short: as §1
# [19] = target: Gal(b1-4)GlcNAc(b1-3)Gal(b1-4)GlcNAc(b1-3)Gal(b1-4)GlcNAc(b1-2)Man(a1-3)[Gal(b1-4)GlcNAc(b1-3)Gal(b1-4)GlcNAc(b1-3)Gal(b1-4)GlcNAc(b1-2)Man(a1-6)]Man(b1-4)GlcNAc(b1-4)GlcNAc
# In short: as §1
# [20] = target: Gal(b1-4)GlcNAc(b1-3)Gal(b1-4)GlcNAc(b1-3)Gal(b1-4)GlcNAc(b1-2)Man(a1-3)[Gal(b1-4)GlcNAc(b1-3)Gal(b1-4)GlcNAc(b1-3)Gal(b1-4)GlcNAc(b1-2)Man(a1-6)]Man(b1-4)GlcNAc(b1-4)[Fuc(a1-6)]GlcNAc
# In short: as §1
# [21] = target: Gal(b1-4)GlcNAc(b1-3)Gal(b1-4)GlcNAc(b1-3)Gal(b1-4)GlcNAc(b1-2)[Gal(b1-4)GlcNAc(b1-3)Gal(b1-4)GlcNAc(b1-3)Gal(b1-4)GlcNAc(b1-6)]Man(a1-6)[Gal(b1-4)GlcNAc(b1-3)Gal(b1-4)GlcNAc(b1-3)Gal(b1-4)GlcNAc(b1-2)Man(a1-3)]Man(b1-4)GlcNAc(b1-4)[Fuc(a1-6)]GlcNAc
# In short: as §1
# [22] = target: Gal(b1-4)GlcNAc(b1-3)Gal(b1-4)GlcNAc(b1-3)Gal(b1-4)GlcNAc(b1-3)Gal(b1-4)GlcNAc(b1-2)Man(a1-3)[Gal(b1-4)GlcNAc(b1-3)Gal(b1-4)GlcNAc(b1-3)Gal(b1-4)GlcNAc(b1-3)Gal(b1-4)GlcNAc(b1-2)Man(a1-6)]Man(b1-4)GlcNAc(b1-4)GlcNAc
# In short: as §1
binder,measurement,setting,value
B1,glycan array binding signal (z-score),[1],0.023
same,glycan array binding signal (z-score),[2],-0.046
same,glycan array binding signal (z-score),[3],-0.126
same,glycan array binding signal (z-score),[4],0.013
same,glycan array binding signal (z-score),[5],0.082
same,glycan array binding signal (z-score),[6],0.026
same,glycan array binding signal (z-score),[7],-0.131
same,glycan array binding signal (z-score),[8],0.008
same,glycan array binding signal (z-score),[9],-0.015
same,glycan array binding signal (z-score),[10],-0.122
same,glycan array binding signal (z-score),[11],-0.04
same,glycan array binding signal (z-score),[12],-0.097
same,glycan array binding signal (z-score),[13],-0.014
same,glycan array binding signal (z-score),[14],0.677
same,glycan array binding signal (z-score),[15],-0.008
same,glycan array binding signal (z-score),[16],1.38
same,glycan array binding signal (z-score),[17],-0.13
same,glycan array binding signal (z-score),[18],-0.156
same,glycan array binding signal (z-score),[19],-0.027
same,glycan array binding signal (z-score),[20],-0.02
same,glycan array binding signal (z-score),[21],-0.101
same,glycan array binding signal (z-score),[22],-0.024

# — the supplement of paper PMC8728848
